{"source": "PubChem BioAssay AID488969", "about": "(Vanderbilt High Throughput Screening Facility, 2010)", "note": "The full ranking holds about 110,000 compounds; the median of “z-score” is about -0.1, and the highest 2% start at about 2. Some of the results follow. Activity calls are given as the source filed them.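 How the source made its calls: active means z-score in the third read window above 3 or below -3; inactive means the rest.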"}
{"target": "Metabotropic glutamate receptor 8 (Rattus norvegicus) (UniProt P70579)", "sequence (P70579 whole entry, looked up)": "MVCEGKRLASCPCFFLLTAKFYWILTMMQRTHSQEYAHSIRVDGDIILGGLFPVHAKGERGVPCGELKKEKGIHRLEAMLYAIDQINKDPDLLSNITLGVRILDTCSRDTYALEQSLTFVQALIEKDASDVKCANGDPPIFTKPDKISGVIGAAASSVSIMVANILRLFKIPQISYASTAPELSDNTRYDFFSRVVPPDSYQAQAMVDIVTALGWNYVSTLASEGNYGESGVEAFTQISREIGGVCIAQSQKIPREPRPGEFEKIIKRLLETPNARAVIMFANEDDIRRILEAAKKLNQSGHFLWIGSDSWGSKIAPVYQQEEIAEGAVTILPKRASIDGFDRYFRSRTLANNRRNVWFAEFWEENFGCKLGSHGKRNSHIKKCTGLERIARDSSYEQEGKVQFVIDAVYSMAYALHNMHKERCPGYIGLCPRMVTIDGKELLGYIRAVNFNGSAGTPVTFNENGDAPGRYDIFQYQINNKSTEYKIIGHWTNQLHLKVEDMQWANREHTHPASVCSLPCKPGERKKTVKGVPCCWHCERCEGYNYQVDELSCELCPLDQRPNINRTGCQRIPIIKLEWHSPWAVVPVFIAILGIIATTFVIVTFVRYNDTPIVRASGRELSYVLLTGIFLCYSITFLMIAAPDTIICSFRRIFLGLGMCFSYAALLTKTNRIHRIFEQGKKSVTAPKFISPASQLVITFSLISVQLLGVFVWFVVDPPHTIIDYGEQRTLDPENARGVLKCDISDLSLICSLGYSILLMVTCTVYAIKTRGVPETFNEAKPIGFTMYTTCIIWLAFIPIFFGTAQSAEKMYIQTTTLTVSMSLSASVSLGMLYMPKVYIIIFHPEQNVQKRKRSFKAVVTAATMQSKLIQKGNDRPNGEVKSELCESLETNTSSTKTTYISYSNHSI", "assay": "rat mGluR8 modulators via GIRK flux, primary screen, cell-based, thallium flux, HTS (AID 488969)", "conditions": "HEK293 rat mGluR8, GIRK (G protein-gated inwardly rectifying potassium channel) thallium flux, FluoZin2; at 10 µM; stronger effect = higher value; submaximal glutamate (EC20) added with thallium"}
{"compound": "CC(C)(C)n1ncc2c(=O)n(CC(=O)NCc3ccccc3Cl)cnc21", "z-score": 1.14}
{"compound": "Cc1nnc(SCC(=O)N2CCC(c3noc4ccc(F)cc34)CC2)s1", "z-score": -0.216}
{"compound": "C=CCn1c(=S)[nH]c2nc3c(cc2c1=O)COC(C)(C)C3", "z-score": 1.16}
{"compound": "CCOC(=O)c1cc[n+](CC(=O)c2ccc(F)cc2)cc1", "z-score": -0.651}
{"compound": "CCNc1nc(NC(C)C)nc(OCCOC(=O)c2ccccc2)n1", "z-score": -0.946}
{"compound": "COc1ccc(NS(=O)(=O)c2ccc(N3CCCC3)c(NC(=S)Nc3cccc(S(=O)(=O)N(C)C)c3)c2)cc1", "z-score": -0.0112}
{"compound": "CC(c1ccco1)N(C(=O)c1ccc(S(=O)(=O)N2CCCCC2)cc1)c1ccccn1", "note": "(stereo not given)", "z-score": -0.0399}
{"compound": "CCOC(=O)CNC(=S)N(Cc1cccs1)C1CCCCC1", "z-score": -1.11}
{"compound": "O=C(NCc1ccccc1)c1noc2c1CCCCC2", "z-score": -0.0478}
{"compound": "COc1cccc(NCc2ccc([N+](=O)[O-])s2)c1", "z-score": -0.0495}
{"compound": "COc1ccc(-c2csc(N3CCC(c4ccccc4)C3)n2)cc1", "note": "(stereo not given)", "z-score": -0.0339}
{"compound": "CCOc1ccc2nc(NC(=O)C(NS(=O)(=O)c3cccs3)C(C)C)sc2c1", "note": "(stereo not given)", "z-score": 0.454}
{"compound": "O=C(O)c1cccc(S(=O)(=O)Nc2ccc3oc(=O)sc3c2)c1", "z-score": 0.0712}
{"compound": "O=c1[nH]c(CN2CCN(c3ccc(F)cc3)CC2)nc2ccccc12", "z-score": -0.12}
{"compound": "COC(=O)c1cc(Br)c(=O)n(Cc2cccnc2)c1", "z-score": -0.555}
{"compound": "CN(C)c1ccc(-n2cccc2/C=N/n2cnnc2)cc1", "z-score": -0.246}
{"compound": "CC(NC(=O)CN1CCN(c2ncccn2)CC1)c1ccc(F)cc1", "note": "(stereo not given)", "z-score": 0.356}
{"compound": "CCOC(=O)N1CCN(C(=O)CN(c2cccc(C(F)(F)F)c2)S(C)(=O)=O)CC1", "z-score": -1.25}
{"compound": "COc1ccc(C2C(C(C)=O)=C(O)C(=O)N2C)c(OC)c1", "note": "(stereo not given)", "z-score": -0.23}
{"compound": "CC(C)CN(C(=O)CN1CCOCC1)c1c(N)n(CC(C)C)c(=O)[nH]c1=O", "z-score": -0.179}
{"compound": "COC(=O)c1ccccc1NC(=O)c1ccccc1N(C)S(=O)(=O)c1ccccc1", "z-score": -0.0709}
{"compound": "CCCCCn1c(SCC(=O)c2ccccc2)nc2cc(C(=O)NCc3ccco3)ccc2c1=O", "z-score": -0.157}
{"compound": "CCOc1ccc(-c2nnc(-c3cccs3)o2)cc1", "z-score": -0.352}
{"compound": "Cc1nn(-c2ccccc2)c(CC(C)(C)C(=O)O)c1C(=O)O", "z-score": 0.508}
{"compound": "CCNc1nc(NCC)n2c(SCC(=O)c3ccc(C(C)C)cc3)nnc2n1", "z-score": -0.0918}
{"compound": "C/C(=N\\OCC(=O)Nc1ccc2c(c1)OCCO2)c1ccc2c(c1)OCCO2", "z-score": -0.144}
{"compound": "CSc1nnc2n(-c3ccc(C)cc3)c(=O)c3c4c(sc3n12)COC(C(C)C)C4", "note": "(stereo not given)", "z-score": -0.057}
{"compound": "CC1(C)CC(=O)c2cnc(NC(=O)Cc3ccc(Cl)cc3)nc2C1", "z-score": -0.914}
{"compound": "CCCCOC(=S)NC(=O)c1sc2ccccc2c1Cl", "z-score": "active: 17.3"}
{"compound": "Cc1cc(O)cc(O)c1C(=O)Cc1cnn(-c2ccccc2)c1", "z-score": -0.667}
{"compound": "COc1cc(S(=O)(=O)N2CCN3CCCC3C2)ccc1-n1cnnn1", "note": "(stereo not given)", "z-score": 0.128}
{"compound": "COCCC(=O)NC12CC3CC(CC(C3)C1)C2", "z-score": -0.301}
{"compound": "CCN(CC(O)Cn1c2ccccc2c2ccccc21)S(=O)(=O)c1ccc(C)cc1", "note": "(stereo not given)", "z-score": 0.0377}
{"compound": "O=C(COc1ccccc1[N+](=O)[O-])N/N=C/c1cccs1", "z-score": 0.59}
{"compound": "Cn1c(=O)c2c(ncn2CC(COCc2ccccc2Cl)OCc2ccccc2Cl)n(C)c1=O", "note": "(stereo not given)", "z-score": -0.242}
{"compound": "Cc1ccc(S(=O)(=O)NC(=O)c2cc(C)n(-c3ccc(N(C)C)cc3)c2C)cc1", "z-score": 0.0357}
{"compound": "COc1cc(S(=O)(=O)N(Cc2ccc(C)cc2)Cc2ccco2)ccc1-n1cnnn1", "z-score": 0.205}
{"compound": "COCCNC(=O)CS(=O)Cc1nc(-c2ccc(OC)cc2)oc1C", "note": "(stereo not given)", "z-score": -0.202}
{"compound": "CCn1c(=O)n(CC)c2cc(S(N)(=O)=O)ccc21", "z-score": -0.511}
{"compound": "Cc1cc(SC#N)cc(C)c1NC(=O)CCl", "z-score": -0.148}
{"compound": "CCn1c(N)c(C(=O)Nc2ccccc2C(=O)OC)sc1=S", "z-score": 0.0436}
{"compound": "CCOc1ccc(/C=C(\\C#N)C(=O)c2c(C)[nH]c3ccccc23)cc1OC", "z-score": -0.253}
{"compound": "COc1ccc(OC)c(S(=O)(=O)N(C)CC(=O)N2CCN(c3ccccc3F)CC2)c1", "z-score": -2.54}
{"compound": "COc1cc2c(cc1NCc1ccc3c(c1)OCO3)oc1ccccc12", "z-score": 0.427}
{"compound": "O/N=C/c1ccc(OCC(O)COc2ccc(/C=N/O)cc2)cc1", "z-score": -0.493}
{"compound": "COc1ccc(-c2noc(CCC(=O)Nc3cccc(C)c3)n2)cc1", "z-score": -0.128}
{"compound": "O=C(NCc1ccccn1)c1cc(-c2ccccc2Cl)nc2ccccc12", "z-score": -0.972}
{"compound": "CCS(=O)(=O)N1Cc2ccccc2CC1C(=O)OCC(=O)Nc1ccc(SC(F)F)cc1", "note": "(stereo not given)", "z-score": -0.256}
{"compound": "COc1ccccc1CN1C(=O)CN(C2CCCC2)C(=O)C1c1ccc(F)cc1", "note": "(stereo not given)", "z-score": 0.21}
{"compound": "CCN1CCN(S(=O)(=O)c2ccc(Br)s2)CC1", "z-score": -0.028}
{"compound": "Nn1c(SCc2nc3ccccn3c2Br)nnc1-c1cccnc1", "z-score": -0.0849}
{"compound": "COc1ncnc(OC)c1NC(=O)c1ccc(F)cc1", "z-score": -0.0697}
{"compound": "COC(=O)c1ccccc1NC(=O)CN(C)S(=O)(=O)c1cc(C)ccc1OC", "z-score": -0.0992}
{"compound": "O=C(Nc1nccs1)C1CC2CCC1C2", "note": "(stereo not given)", "z-score": -0.0817}
{"compound": "Cc1cc(C)c(S(=O)(=O)Nc2nnc(C)s2)c(C)c1", "z-score": -0.124}
{"compound": "CCc1ccc(CNC(=O)CCc2nc(-c3cccs3)no2)cc1", "z-score": -0.0239}
{"compound": "O=C(CN1CCSCC1)N/N=C/c1ccc(F)cc1F", "z-score": 0.276}
{"compound": "CN(C)S(=O)(=O)c1cccc(C(=O)Nc2ccccc2Cl)c1", "z-score": -0.373}
{"compound": "Cc1ccc(S(=O)(=O)N(CC(=O)N2CCc3ccccc3C2)c2cccc(Cl)c2)cc1", "z-score": -0.189}
{"compound": "CC(=O)c1ccc(OCC(O)CN2CCCC(C)C2)cc1", "note": "(stereo not given)", "z-score": -0.0491}
{"compound": "O=C(NCc1ccc2[nH]c3c(c2c1)CCCC3)N1CCOCC1", "z-score": 0.806}
{"compound": "O=C(Nc1ccc(Cl)cn1)Nc1ccccc1F", "z-score": 0.471}
{"compound": "Cc1ccc(CSc2nnc(SCC(=O)N/N=C/C=C/c3ccco3)s2)cc1", "z-score": -0.159}
{"compound": "O=C(O)c1ccccc1C(=O)NNc1ccc(F)cc1", "z-score": 0.269}
{"compound": "FC(F)(F)c1cnc(Sc2nnc(-c3cccs3)n2CC2CCCO2)c(Cl)c1", "note": "(stereo not given)", "z-score": 0.0854}
{"compound": "Cn1c(Oc2ccccc2NCc2cccc(Br)c2)cc(=O)n(C)c1=O", "z-score": -1.27}
{"compound": "CC(C)NC(=O)NC(=O)COC(=O)CCCSc1nc2ccccc2s1", "z-score": -0.112}
{"compound": "COc1ccc(-n2cc(-c3ccccc3)[nH]c2=S)cc1", "z-score": "active: 11.4"}
{"compound": "CCCCCn1c(SCC(=O)OCC)nc2cc(C(=O)N3CCC(C(N)=O)CC3)ccc2c1=O", "z-score": -0.507}
{"compound": "Cc1cc(NC(=O)CSc2nnc(C3COc4ccccc4O3)o2)no1", "note": "(stereo not given)", "z-score": -0.515}
